Test results published in publication PMC12820563.
This is one part of the list. The list includes weakly bound sequences.

Biological target: T1, MBP-FoxP3dN (UniProt Q99JB6)
T1 sequence: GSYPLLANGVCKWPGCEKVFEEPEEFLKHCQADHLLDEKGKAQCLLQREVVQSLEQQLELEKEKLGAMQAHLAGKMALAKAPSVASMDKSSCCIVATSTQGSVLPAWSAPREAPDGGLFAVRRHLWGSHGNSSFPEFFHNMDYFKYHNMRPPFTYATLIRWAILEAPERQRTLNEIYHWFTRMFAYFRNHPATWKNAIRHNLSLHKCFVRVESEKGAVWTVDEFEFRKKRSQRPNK
Assay: PD-seq (MBP pull-down with sequencing)
Conditions: 20 mM Tris-HCl pH 7.5, 100 mM NaCl, 1.5 mM MgCl2, 0.4 uM protein, 0.1 uM dsDNA library, 30 min, room temperature, amylose pull-down; high values mean tight binding; double strand, one strand shown

Row | Sequence | binding signal (RPM ratio (pull-down/input))
1 | GATGATTGTTCTCCCAGCTGATGAATTTCCCGTGTCGAGTAAACAAATTTTCCTAATCTTTCTGTTCAAGCGCCATCTAC | 0.287
2 | GATGATTGTTCTCCCAGCTGATGAATTACTGTCCTCGAGTAAACAAATTTTCCTAATCTTTCTGTTCAAGCGCCATCTAC | 0.357
3 | GATGATTGTTCTCCCAGCTGATGAATTTTATCATTCGAGTAAACAAATTTTCCTAATCTTTCTGTTCAAGCGCCATCTAC | 2.28
4 | GATGATTGTTCTCCCAGCTGATGAATTAGACGGATCGAGTAAACAAATTTTCCTAATCTTTCTGTTCAAGCGCCATCTAC | 0.245
5 | GATGATTGTTCTCCCAGCTGATGAATTTCTTGTTTCGAGTAAACAAATTTTCCTAATCTTTCTGTTCAAGCGCCATCTAC | 0.932
6 | GATGATTGTTCTCCCAGCTGATGAATTTGGTCGTTCGAGTAAACAAATTTTCCTAATCTTTCTGTTCAAGCGCCATCTAC | 0.606
7 | GATGATTGTTCTCCCAGCTGATGAATTTTATCTGTCGAGTAAACAAATTTTCCTAATCTTTCTGTTCAAGCGCCATCTAC | 0.484
8 | GATGATTGTTCTCCCAGCTGATGAATTTCGTTGTTCGAGTAAACAAATTTTCCTAATCTTTCTGTTCAAGCGCCATCTAC | 3.89
9 | GATGATTGTTCTCCCAGCTGATGAATTGTCGAGATCGAGTAAACAAATTTTCCTAATCTTTCTGTTCAAGCGCCATCTAC | 0.293
10 | GATGATTGTTCTCCCAGCTGATGAATTTCTCAAATCGAGTAAACAAATTTTCCTAATCTTTCTGTTCAAGCGCCATCTAC | 0.218
11 | GATGATTGTTCTCCCAGCTGATGAATTCGGCGCTTCGAGTAAACAAATTTTCCTAATCTTTCTGTTCAAGCGCCATCTAC | 0.768
12 | GATGATTGTTCTCCCAGCTGATGAATTCAGTGCTTCGAGTAAACAAATTTTCCTAATCTTTCTGTTCAAGCGCCATCTAC | 0.767
13 | GATGATTGTTCTCCCAGCTGATGAATTTGTTCCATCGAGTAAACAAATTTTCCTAATCTTTCTGTTCAAGCGCCATCTAC | 1.9
14 | GATGATTGTTCTCCCAGCTGATGAATTAGCCCGTTCGAGTAAACAAATTTTCCTAATCTTTCTGTTCAAGCGCCATCTAC | 0.284
15 | GATGATTGTTCTCCCAGCTGATGAATTCGAACATTCGAGTAAACAAATTTTCCTAATCTTTCTGTTCAAGCGCCATCTAC | 0.468
16 | GATGATTGTTCTCCCAGCTGATGAATTAAATGACTCGAGTAAACAAATTTTCCTAATCTTTCTGTTCAAGCGCCATCTAC | 0.548

Row | Sequence | binding signal (RPM ratio (pull-down/input))
17 | GATGATTGTTCTCCCAGCTGATGAATTTGACTCGTCGAGTAAACAAATTTTCCTAATCTTTCTGTTCAAGCGCCATCTAC | 0.513
18 | GATGATTGTTCTCCCAGCTGATGAATTCTCAACGTCGAGTAAACAAATTTTCCTAATCTTTCTGTTCAAGCGCCATCTAC | 0.271
19 | GATGATTGTTCTCCCAGCTGATGAATTGCCTAGGTCGAGTAAACAAATTTTCCTAATCTTTCTGTTCAAGCGCCATCTAC | 0.347
20 | GATGATTGTTCTCCCAGCTGATGAATTTGATTGATCGAGTAAACAAATTTTCCTAATCTTTCTGTTCAAGCGCCATCTAC | 2.23
21 | GATGATTGTTCTCCCAGCTGATGAATTGCCCCCATCGAGTAAACAAATTTTCCTAATCTTTCTGTTCAAGCGCCATCTAC | 0.513
22 | GATGATTGTTCTCCCAGCTGATGAATTCCTCGTGTCGAGTAAACAAATTTTCCTAATCTTTCTGTTCAAGCGCCATCTAC | 0.332
23 | GATGATTGTTCTCCCAGCTGATGAATTGAGACATTCGAGTAAACAAATTTTCCTAATCTTTCTGTTCAAGCGCCATCTAC | 1.12
24 | GATGATTGTTCTCCCAGCTGATGAATTGGACTAGTCGAGTAAACAAATTTTCCTAATCTTTCTGTTCAAGCGCCATCTAC | 0.255
25 | GATGATTGTTCTCCCAGCTGATGAATTGGCCCAATCGAGTAAACAAATTTTCCTAATCTTTCTGTTCAAGCGCCATCTAC | 0.308
26 | GATGATTGTTCTCCCAGCTGATGAATTTAGCCGCTCGAGTAAACAAATTTTCCTAATCTTTCTGTTCAAGCGCCATCTAC | 1.56
27 | GATGATTGTTCTCCCAGCTGATGAATTATATGTCTCGAGTAAACAAATTTTCCTAATCTTTCTGTTCAAGCGCCATCTAC | 1.18
28 | GATGATTGTTCTCCCAGCTGATGAATTTCCGGCATCGAGTAAACAAATTTTCCTAATCTTTCTGTTCAAGCGCCATCTAC | 0.649
29 | GATGATTGTTCTCCCAGCTGATGAATTTGTAGAGTCGAGTAAACAAATTTTCCTAATCTTTCTGTTCAAGCGCCATCTAC | 1.65
30 | GATGATTGTTCTCCCAGCTGATGAATTTAGATGGTCGAGTAAACAAATTTTCCTAATCTTTCTGTTCAAGCGCCATCTAC | 0.829
31 | GATGATTGTTCTCCCAGCTGATGAATTTATGCGATCGAGTAAACAAATTTTCCTAATCTTTCTGTTCAAGCGCCATCTAC | 0.984
